# Measured values taken from PubChem BioAssay (NCATS).
# The other results are listed elsewhere or left out. Further columns of the screen follow, without active or inactive calls. For some of these results: Most of these compounds were active or inconclusive in the main read-out, so they are no random draw. Words in brackets tell the shape of the fitted curve; partial curves, single points and poor fits give uncertain potencies.
# Biological target: Histamine N-methyltransferase (Homo sapiens) (UniProt P50135)
# Test: Confirmatory Screen for Target Class Profiling of Small Molecule Inhibitors of Methyltransferases (AID 1745852);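 further: inhibitor potency for blocking SAH production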
# Settings: MTase-Glo luminescence, SAH detection, recombinant enzyme; measured here: HNMT inhibition potency
# Tags describe the fitted curve by direction and shape.
# Chain of UniProt P50135 (P50135 whole entry, looked up): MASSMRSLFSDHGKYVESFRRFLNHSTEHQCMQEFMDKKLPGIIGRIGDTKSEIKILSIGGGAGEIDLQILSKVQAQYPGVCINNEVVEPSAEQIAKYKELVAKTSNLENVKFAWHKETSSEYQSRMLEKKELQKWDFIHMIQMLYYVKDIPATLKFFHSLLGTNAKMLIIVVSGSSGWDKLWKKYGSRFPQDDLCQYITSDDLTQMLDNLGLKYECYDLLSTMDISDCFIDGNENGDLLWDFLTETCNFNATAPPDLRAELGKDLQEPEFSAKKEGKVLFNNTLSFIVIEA
row,Structure (SMILES),IC50
1,Cc1cc(C(C#N)c2ccc(Cl)cc2)c(Cl)cc1NC(=O)c1cc(I)cc(I)c1O (stereo not drawn),"42.9 µM [falling, single point]"
2,O=C1NC2CCCCN2C12CCN(CCCN1c3ccccc3CCc3ccc(Cl)cc31)CC2 (stereo not drawn),"6.81 µM [falling, full curve]"
3,Cc1ccc(Nc2nccc(N(C)c3ccc4c(C)n(C)nc4c3)n2)cc1S(N)(=O)=O,"13.6 µM [falling, partial curve]"
4,NC1(c2ccc(-c3nc4ccn5c(=O)[nH]nc5c4cc3-c3ccccc3)cc2)CCC1,"27.1 µM [falling, single point]"
5,Cc1nc(Nc2ncc(C(=O)Nc3c(C)cccc3Cl)s2)cc(N2CCN(CCO)CC2)n1,"24.1 µM [falling, partial curve]"

# Biological target: Nicotinamide N-methyltransferase (Homo sapiens) (UniProt P40261)
# Test: as above
# Settings: MTase-Glo luminescence, SAH detection, recombinant enzyme; measured here: NNMT inhibition potency
# Chain of UniProt P40261 (P40261 whole entry, looked up): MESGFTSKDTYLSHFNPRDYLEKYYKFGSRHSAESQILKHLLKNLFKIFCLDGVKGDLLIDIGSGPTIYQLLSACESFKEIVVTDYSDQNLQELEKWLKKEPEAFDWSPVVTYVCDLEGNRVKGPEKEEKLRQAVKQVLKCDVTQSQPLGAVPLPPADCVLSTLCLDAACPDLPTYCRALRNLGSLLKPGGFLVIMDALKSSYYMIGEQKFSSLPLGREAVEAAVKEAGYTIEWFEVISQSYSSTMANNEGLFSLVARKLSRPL
row,Structure (SMILES),IC50
1,CN1CCN(C2Cc3ccccc3Sc3ccc(Cl)cc32)CC1 (stereo not drawn),"43.2 µM [falling, partial curve, poor fit]"
2,Cc1cc(C(C#N)c2ccc(Cl)cc2)c(Cl)cc1NC(=O)c1cc(I)cc(I)c1O (stereo not drawn),"24.1 µM [falling, partial curve]"
3,CN(C)C(=O)C(CCN1CCC(O)(c2ccc(Cl)cc2)CC1)(c1ccccc1)c1ccccc1,"34.3 µM [falling, single point]"
4,O=C1NC2CCCCN2C12CCN(CCCN1c3ccccc3CCc3ccc(Cl)cc31)CC2 (stereo not drawn),"21.5 µM [falling, partial curve, poor fit]"
5,Clc1ccc(C(Cn2ccnc2)OCc2c(Cl)cccc2Cl)c(Cl)c1 (stereo not drawn),"21.5 µM [falling, partial curve]"
6,O=C1Nc2ccc(Cl)cc2[C@@](C#CC2CC2)(C(F)(F)F)O1,"24.1 µM [falling, partial curve]"
7,OCCN1CCN(CCCN2c3ccccc3Sc3ccc(C(F)(F)F)cc32)CC1,"27.3 µM [falling, partial curve]"
8,Cc1nc(Nc2ncc(C(=O)Nc3c(C)cccc3Cl)s2)cc(N2CCN(CCO)CC2)n1,"24.1 µM [falling, partial curve]"

# System: not listed separately
# Test: NCATS anti-infectives library activity on the primary C. elegans qHTS viability assay (AID 1745855)
# Settings: C. elegans worm area imaging, day 7, measured here: worm number
# Procedure, shortened: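 GFP read-out by 488 nm laser cytometry at day 0, 3 and 7, gated on object perimeter, area and peak intensity, scored viability of PE254-GFP-FLuc worms exposed to compound in S medium with bacterial capsules at 21 °C.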
row,Structure (SMILES),AC50
1,O[C@@H](c1cc(C(F)(F)F)nc2c(C(F)(F)F)cccc12)[C@H]1CCCCN1,"16.3 µM [falling, partial curve, poor fit]"
2,O=C1Nc2ccc(Cl)cc2[C@@](C#CC2CC2)(C(F)(F)F)O1,"25.8 µM [falling, single point]"
3,CCCCCN=C(N)N/N=C/c1c[nH]c2ccc(OC)cc12,"20.5 µM [falling, partial curve, poor fit]"
4,CCCCCCCCCCCCCCCC[n+]1ccccc1,"23 µM [falling, single point]"
5,C1CCC(C(CC2CCCCN2)C2CCCCC2)CC1 (stereo not drawn),"0.0459 µM [falling, full curve, poor fit]"

# Same assay, conditions: C. elegans worm area imaging, day 7; measured here: worm area, day 3
row,Structure (SMILES),AC50
1,CCN(CC)CCNc1ccc(CO)c2sc3ccccc3c(=O)c12,"1.83 µM [falling, full curve, poor fit]"
2,O[C@@H](c1cc(C(F)(F)F)nc2c(C(F)(F)F)cccc12)[C@H]1CCCCN1,"25.8 µM [falling, single point]"
3,O=C1Nc2ccc(Cl)cc2[C@@](C#CC2CC2)(C(F)(F)F)O1,"57.8 µM [falling, single point]"
4,CCCCCN=C(N)N/N=C/c1c[nH]c2ccc(OC)cc12,"25.8 µM [falling, single point]"
5,C1CCC(C(CC2CCCCN2)C2CCCCC2)CC1 (stereo not drawn),"25.8 µM [falling, single point]"

# System: not listed separately
# Test: qHTS drug screen for cell cycle checkpoint inhibitors in PARPi-resistant BRCA-mutant ovarian cancer cell lines. (AID 1963452)
# Settings: PEO1/OlaR viability, CellTiter-Glo luminescence, 96 h; measured here: PEO1 parental viability
# Procedure, shortened: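 PEO1, PEO4 and PEO1/OlaR ovarian cancer cells, 600 per well, exposed 96 h at 37C to a dilution series. Viability read by CellTiter-Glo luminescence, normalized to DMSO and empty wells; activity summarized as Z-AUC.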
row,Structure (SMILES),AC50
1,O[C@@H](COc1cccc2ncccc12)CN1CCN(C2c3ccccc3[C@@H]3[C@H](c4ccccc42)C3(F)F)CC1 (stereo partly drawn),"19.5 µM [falling, partial curve]"
2,Cc1c(C(=O)NN2CCCCC2)nn(-c2ccc(Cl)cc2Cl)c1-c1ccc(Cl)cc1,"15.5 µM [falling, partial curve, poor fit]"
3,Cc1cc2c(C(C)C)c(O)c(O)c(C=O)c2c(O)c1-c1c(C)cc2c(C(C)C)c(O)c(O)c(C=O)c2c1O,"24.5 µM [falling, single point]"
4,COC(=O)Nc1nc2ccc(S(=O)c3ccccc3)cc2[nH]1 (stereo not drawn),"12.3 µM [falling, partial curve]"
5,CN(C)C(=O)C(CCN1CCC(O)(c2ccc(Cl)cc2)CC1)(c1ccccc1)c1ccccc1,"21.9 µM [falling, single point]"
6,Clc1ccc(C(Cn2ccnc2)OCc2ccc(Sc3ccccc3)cc2)c(Cl)c1 (stereo not drawn),"12.3 µM [falling, partial curve, poor fit]"
7,Clc1ccc(C(Cn2ccnc2)OCc2c(Cl)cccc2Cl)c(Cl)c1 (stereo not drawn),"17.4 µM [falling, single point]"
8,O=C(c1ccc(OCCN2CCCCC2)cc1)c1c(-c2ccc(O)cc2)sc2cc(O)ccc12,"19.5 µM [falling, single point]"
9,Cc1ccc(Nc2nccc(N(C)c3ccc4c(C)n(C)nc4c3)n2)cc1S(N)(=O)=O,"1.95 µM [falling, partial curve]"
10,NC1(c2ccc(-c3nc4ccn5c(=O)[nH]nc5c4cc3-c3ccccc3)cc2)CCC1,"19.5 µM [falling, partial curve]"
11,OCCN1CCN(CCCN2c3ccccc3Sc3ccc(C(F)(F)F)cc32)CC1,"13.8 µM [falling, partial curve]"
12,Cc1nc(Nc2ncc(C(=O)Nc3c(C)cccc3Cl)s2)cc(N2CCN(CCO)CC2)n1,"21.9 µM [falling, single point]"
13,C[C@@H](NCCCc1cccc(C(F)(F)F)c1)c1cccc2ccccc12,"19.5 µM [falling, single point]"
14,CC(=O)Oc1ccccc1C(=O)Nc1ncc([N+](=O)[O-])s1,"17.4 µM [falling, partial curve]"
15,CCCCCN=C(N)N/N=C/c1c[nH]c2ccc(OC)cc12,"11 µM [falling, partial curve]"
16,CCCS(=O)c1ccc2nc(NC(=O)OC)[nH]c2c1 (stereo not drawn),"21.9 µM [falling, partial curve, poor fit]"
17,CCCCc1oc2ccc(NS(C)(=O)=O)cc2c1C(=O)c1ccc(OCCCN(CCCC)CCCC)cc1,"12.3 µM [falling, partial curve]"
18,CCN(CC)CCNC(=O)c1c(C)[nH]c(/C=C2\C(=O)Nc3ccc(F)cc32)c1C,"11 µM [falling, partial curve]"
19,C1CCC(C(CC2CCCCN2)C2CCCCC2)CC1 (stereo not drawn),"15.5 µM [falling, partial curve]"
20,O=C(O)c1ccc(-n2nc(-c3ccccc3O)nc2-c2ccccc2O)cc1,"11 µM [falling, partial curve]"
